In US9988430B2, “Stable GLP-1 based GLP-1/glucagon receptor co-agonists” (Novo Nordisk A/S, priority 2014, dated 2018):
At least one compound was matched to its structure with a doubt left. *1 amine or outer side, *2 acyl side, *3 side chain or, on linkers, in order; H or OH if unused. Where a SMILES comes first, the peptide text is derived from it. Side-chain parts run from the residue outwards. [ ]: non-standard residue; d: D form. The star is where a group is joined. C18 diacid = O=C(O)CCCCCCCCCCCCCCCCC(=O)*; γGlu = O=C(O)[C@H](CCC(=O)[*:2])N[*:1]; Desaminohistidyl = O=C(CCc1c[nH]cn1)*; Ac4c = NC1(C(=O)O)CCC1; AEEA = NCCOCCOCC(=O)O; Aib = CC(C)(N)C(=O)O

Experiment: Assay (III): ThT fibrillation assay for physical stability
Format: physicochemical
Conditions: pH 7.5, 10 mM HEPES buffer, 37° C., shaking 960 rpm

ThT assay pH 7.5: Lag time, 45.0 h:
CC[C@H](C)[C@H](NC(=O)[C@H](Cc1ccccc1)NC(=O)[C@H](CCC(=O)O)NC(=O)[C@H](CCCNC(=N)N)NC(=O)[C@H](C)NC(=O)[C@H](C)NC(=O)[C@H](CCCNC(=N)N)NC(=O)[C@H](CCCNC(=N)N)NC(=O)[C@H](CCC(=O)O)NC(=O)[C@H](CC(C)C)NC(=O)[C@H](Cc1ccc(O)cc1)NC(=O)[C@H](CCCCN)NC(=O)[C@H](CO)NC(=O)[C@H](Cc1ccc(O)cc1)NC(=O)[C@H](CC(=O)O)NC(=O)[C@H](CO)NC(=O)[C@@H](NC(=O)[C@H](Cc1ccccc1)NC(=O)[C@@H](NC(=O)CNC(=O)[C@H](Cc1c[nH]cn1)NC(=O)C1(NC(=O)CCc2c[nH]cn2)CCC1)[C@@H](C)O)[C@@H](C)O)C(=O)N[C@@H](C)C(=O)N[C@@H](Cc1c[nH]c2ccccc12)C(=O)N[C@@H](CC(C)C)C(=O)N[C@@H](CC(C)C)C(=O)N[C@@H](CCCCN)C(=O)N[C@@H](CCCCNC(=O)CC[C@H](NC(=O)COCCOCCNC(=O)CC[C@H](NC(=O)COCCOCCNC(=O)CC[C@H](NC(=O)COCCOCCNC(=O)CC[C@H](NC(=O)CC[C@H](NC(=O)CCCCCCCCCCCCCCCCC(=O)O)C(=O)O)C(=O)O)C(=O)O)C(=O)O)C(=O)O)C(N)=O [Example 24, N^ε35-[(4S)-4-carboxy-4-[[2-[2-[2-[[(4S)-4-carboxy-4-[[2-[2-[2-[[(4S)-4-carboxy-4-[[2-[2-[2-[[(4S)-4-carboxy-4-[[(4S)-4-carboxy-4-(17-carboxyheptadecanoylamino)butanoyl]amino]butanoyl]amino]ethoxy]ethoxy]acetyl]amino]butanoyl]amino]ethoxy]ethoxy]acetyl]amino]butanoyl]amino]ethoxy]ethoxy]acetyl]amino]butanoyl]-[Imp7,Acb8,His9,Tyr16,Lys18,Arg22,Arg23,Arg26, Leu33, Lys35]-GLP-1-(7-35)-peptide amide] (Desaminohistidyl-[Ac4c]HGTFTSDYSKYLERRAAREFIAWLLKK([γGlu-AEEA-γGlu-AEEA-γGlu-AEEA-γGlu-γGlu-C18 diacid])-NH2)
CC[C@H](C)[C@H](NC(=O)[C@H](Cc1ccccc1)NC(=O)[C@H](CCC(=O)O)NC(=O)[C@H](CCCNC(=N)N)NC(=O)[C@H](C)NC(=O)[C@H](C)NC(=O)[C@H](CCC(N)=O)NC(=O)[C@H](CCC(=O)O)NC(=O)[C@H](CCC(=O)O)NC(=O)[C@H](CC(C)C)NC(=O)[C@H](Cc1ccc(O)cc1)NC(=O)[C@H](CCCCN)NC(=O)[C@H](CO)NC(=O)[C@@H](NC(=O)[C@H](CC(=O)O)NC(=O)[C@H](CO)NC(=O)[C@@H](NC(=O)[C@H](Cc1ccccc1)NC(=O)[C@@H](NC(=O)CNC(=O)[C@H](Cc1c[nH]cn1)NC(=O)C(C)(C)NC(=O)CCc1c[nH]cn1)[C@@H](C)O)[C@@H](C)O)C(C)C)C(=O)N[C@@H](C)C(=O)N[C@@H](Cc1c[nH]c2ccccc12)C(=O)N[C@@H](CC(C)C)C(=O)N[C@@H](CC(C)C)C(=O)N[C@@H](CCCCNC(=O)CC[C@H](NC(=O)CC[C@H](NC(=O)CC[C@H](NC(=O)CC[C@H](NC(=O)CCCCCCCCCCCCCCCCC(=O)O)C(=O)O)C(=O)O)C(=O)O)C(=O)O)C(=O)N[C@H](C(N)=O)[C@@H](C)O [Example 6, N^ε34-[(4S)-4-carboxy-4-[[(4S)-4-carboxy-4-[[(4S)-4-carboxy-4-[[(4S)-4-carboxy-4-(17-carboxyheptadecanoylamino)butanoyl]amino]butanoyl]amino]butanoyl]amino]butanoyl]-[Imp7,Aib8,His9,Lys18,Glu22,Arg26,Leu33,Thr35]-GLP-1-(7-35)-peptide amide] (Desaminohistidyl-[Aib]HGTFTSDVSKYLEEQAAREFIAWLLK([γGlu-γGlu-γGlu-γGlu-C18 diacid])T-NH2)
CC[C@H](C)[C@H](NC(=O)[C@H](Cc1ccccc1)NC(=O)[C@H](CCC(=O)O)NC(=O)[C@H](CCCNC(=N)N)NC(=O)[C@H](C)NC(=O)[C@H](C)NC(=O)[C@H](CCCNC(=N)N)NC(=O)CNC(=O)[C@H](CCC(=O)O)NC(=O)[C@H](CC(C)C)NC(=O)[C@H](Cc1ccc(O)cc1)NC(=O)[C@H](CCCNC(=N)N)NC(=O)[C@H](CO)NC(=O)[C@@H](NC(=O)[C@H](CC(=O)O)NC(=O)[C@H](CO)NC(=O)[C@@H](NC(=O)[C@H](Cc1ccccc1)NC(=O)[C@@H](NC(=O)CNC(=O)[C@H](Cc1c[nH]cn1)NC(=O)C(C)(C)NC(=O)CCc1c[nH]cn1)[C@@H](C)O)[C@@H](C)O)C(C)C)C(=O)N[C@@H](C)C(=O)N[C@@H](Cc1c[nH]c2ccccc12)C(=O)N[C@@H](CC(C)C)C(=O)N[C@@H](CC(C)C)C(=O)N[C@@H](CCCCNC(=O)CC[C@H](NC(=O)CC[C@H](NC(=O)COCCOCCNC(=O)CC[C@H](NC(=O)CC[C@H](NC(=O)CCCCCCCCCCCCCCCCC(=O)O)C(=O)O)C(=O)O)C(=O)O)C(=O)O)C(=O)NCC(=O)N[C@@H](C)C(=O)NCC(=O)O [Example 35, N^ε34-[(4S)-4-carboxy-4-[[(4S)-4-carboxy-4-[[2-[2-[2-[[(4S)-4-carboxy-4-[[(4S)-4-carboxy-4-(17-carboxyheptadecanoylamino)butanoyl]amino]butanoyl]amino]ethoxy]ethoxy]acetyl]amino]butanoyl]amino]butanoyl]-[Imp7,Aib8,His9,Arg18,Arg23,Arg26,Leu33,Ala36]-GLP-1-(7-37)-peptide] (Desaminohistidyl-[Aib]HGTFTSDVSRYLEGRAAREFIAWLLK([γGlu-γGlu-AEEA-γGlu-γGlu-C18 diacid])GAG-OH)
CC[C@H](C)[C@H](NC(=O)[C@H](Cc1ccccc1)NC(=O)[C@H](CCC(=O)O)NC(=O)[C@H](CCCNC(=N)N)NC(=O)[C@H](C)NC(=O)[C@H](C)NC(=O)[C@H](CCC(N)=O)NC(=O)[C@H](CCC(=O)O)NC(=O)[C@H](CCC(=O)O)NC(=O)[C@H](CC(C)C)NC(=O)[C@H](Cc1ccc(O)cc1)NC(=O)[C@H](CCCCN)NC(=O)[C@H](CO)NC(=O)[C@@H](NC(=O)[C@H](CC(=O)O)NC(=O)[C@H](CO)NC(=O)[C@@H](NC(=O)[C@H](Cc1ccccc1)NC(=O)[C@@H](NC(=O)CNC(=O)[C@H](Cc1c[nH]cn1)NC(=O)C(C)(C)NC(=O)CCc1c[nH]cn1)[C@@H](C)O)[C@@H](C)O)C(C)C)C(=O)N[C@@H](C)C(=O)N[C@@H](Cc1c[nH]c2ccccc12)C(=O)N[C@@H](CC(C)C)C(=O)N[C@@H](CC(C)C)C(=O)N[C@@H](CCCCNC(=O)COCCOCCNC(=O)COCCOCCNC(=O)CC[C@H](NC(=O)CC[C@H](NC(=O)CCCCCCCCCCCCCCCCC(=O)O)C(=O)O)C(=O)O)C(=O)N[C@H](C(N)=O)[C@@H](C)O [Example 5, N^ε34-[2-[2-[2-[[2-[2-[2-[[(4S)-4-carboxy-4-[[(4S)-4-carboxy-4-(17-carboxyheptadecanoylamino)butanoyl]amino]butanoyl]amino]ethoxy]ethoxy]acetyl]amino]ethoxy]ethoxy]acetyl]-[Imp7,Aib8,His9,Lys18,Glu22,Arg26,Leu33,Thr35]-GLP-1-(7-35)-peptide amide] (Desaminohistidyl-[Aib]HGTFTSDVSKYLEEQAAREFIAWLLK([AEEA-AEEA-γGlu-γGlu-C18 diacid])T-NH2)
